Measured values taken from patent US20150283263A1 (ADC THERAPEUTICS S A, published 2015).

T1: CD25 (human, UniProt P01589 22-272)
T1 sequence (looked up): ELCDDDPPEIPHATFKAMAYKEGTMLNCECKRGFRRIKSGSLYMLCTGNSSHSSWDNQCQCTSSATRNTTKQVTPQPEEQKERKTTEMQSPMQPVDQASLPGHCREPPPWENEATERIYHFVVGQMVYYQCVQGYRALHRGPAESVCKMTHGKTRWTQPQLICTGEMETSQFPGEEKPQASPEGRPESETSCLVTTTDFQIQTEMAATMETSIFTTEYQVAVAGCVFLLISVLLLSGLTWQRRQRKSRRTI


How the values were obtained:
[1] = target: T1, CD25; assay: cell-based or functional assay
[2] = target: T1, CD25; assay: cell-based or functional assay; remark: listed apart in the source

Binder	EC50 (µg/mL), MTS cytotoxicity assay on SU-DHL-1 cells [1] [µg/mL]	EC50 (µg/mL), MTS cytotoxicity assay on Karpas299 cells [2] [µg/mL]
HuMax-TAC-E (other, PBD drug-linker E conjugated to reduced interchain cysteine thiols; DAR 2.3) VH: QVQLVQSGAEVKKPGSSVKVSCKASGGTFSRYIINWVRQAPGQGLEWMGRIIPILGVENYAQKFQGRVTITADKSTSTAYMELSSLRSEDTAVYYCARKDWFDYWGQGTLVTVSSASTKGPSVFPLA VL: EIVLTQSPGTLSLSPGERATLS[omitted - about 80 residues]TFGGGTKVEIKRTVAAPSVFIFP	0.000592	0.000742
HuMax-TAC-D (other, PBD drug-linker D conjugated to reduced interchain cysteine thiols; DAR 1.25) VH: QVQLVQSGAEVKKPGSSVKVSCKASGGTFSRYIINWVRQAPGQGLEWMGRIIPILGVENYAQKFQGRVTITADKSTSTAYMELSSLRSEDTAVYYCARKDWFDYWGQGTLVTVSSASTKGPSVFPLA VL: EIVLTQSPGTLSLSPGERATLS[omitted - about 80 residues]TFGGGTKVEIKRTVAAPSVFIFP	0.00104	0.00338
HuMax-TAC-A (other, PBD drug-linker A conjugated to reduced interchain cysteine thiols; DAR 2.19) VH: QVQLVQSGAEVKKPGSSVKVSCKASGGTFSRYIINWVRQAPGQGLEWMGRIIPILGVENYAQKFQGRVTITADKSTSTAYMELSSLRSEDTAVYYCARKDWFDYWGQGTLVTVSSASTKGPSVFPLA VL: EIVLTQSPGTLSLSPGERATLS[omitted - about 80 residues]TFGGGTKVEIKRTVAAPSVFIFP		0.00206
